No constants are given. Whether binding was seen depends on the method and setting. Some results given as binding are weak or reduced against the parent protein; the word gives no strength. For some assays here: Tags and fused reporters may be left off the sequences shown. One block for each molecule: values may come before it.
Experiments:
[1] = biological target: T1, Apn2, Gal4 DNA-binding domain fusion (pGBT9, pID1159) (yeast) (UniProt P38207); experiment: two-hybrid; Gal4 binding and activation domain fusions co-transformed into PJ69-4A; growth on SC-leu/trp/his (HIS3 reporter); 3-AT added to test the strength of the interactions; 30 °C, 3-5 days
T1 sequence: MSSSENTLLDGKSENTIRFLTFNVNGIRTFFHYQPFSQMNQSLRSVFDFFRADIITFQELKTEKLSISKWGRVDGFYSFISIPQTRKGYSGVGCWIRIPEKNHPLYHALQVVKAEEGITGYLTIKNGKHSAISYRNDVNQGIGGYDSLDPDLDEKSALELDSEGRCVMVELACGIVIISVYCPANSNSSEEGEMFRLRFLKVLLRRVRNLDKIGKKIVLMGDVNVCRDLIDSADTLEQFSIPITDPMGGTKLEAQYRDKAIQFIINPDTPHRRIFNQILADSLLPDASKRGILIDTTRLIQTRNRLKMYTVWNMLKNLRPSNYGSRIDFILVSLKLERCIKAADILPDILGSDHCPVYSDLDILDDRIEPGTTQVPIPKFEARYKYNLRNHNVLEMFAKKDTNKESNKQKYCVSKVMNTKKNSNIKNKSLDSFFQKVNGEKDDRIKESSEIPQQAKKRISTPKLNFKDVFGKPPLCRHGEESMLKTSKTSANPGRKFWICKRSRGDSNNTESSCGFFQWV

[2] = biological target: T2, Rad5, Gal4 DNA-binding domain fusion (pGBT9, pID623) (yeast) (UniProt P32849); experiment: as above
T2 sequence: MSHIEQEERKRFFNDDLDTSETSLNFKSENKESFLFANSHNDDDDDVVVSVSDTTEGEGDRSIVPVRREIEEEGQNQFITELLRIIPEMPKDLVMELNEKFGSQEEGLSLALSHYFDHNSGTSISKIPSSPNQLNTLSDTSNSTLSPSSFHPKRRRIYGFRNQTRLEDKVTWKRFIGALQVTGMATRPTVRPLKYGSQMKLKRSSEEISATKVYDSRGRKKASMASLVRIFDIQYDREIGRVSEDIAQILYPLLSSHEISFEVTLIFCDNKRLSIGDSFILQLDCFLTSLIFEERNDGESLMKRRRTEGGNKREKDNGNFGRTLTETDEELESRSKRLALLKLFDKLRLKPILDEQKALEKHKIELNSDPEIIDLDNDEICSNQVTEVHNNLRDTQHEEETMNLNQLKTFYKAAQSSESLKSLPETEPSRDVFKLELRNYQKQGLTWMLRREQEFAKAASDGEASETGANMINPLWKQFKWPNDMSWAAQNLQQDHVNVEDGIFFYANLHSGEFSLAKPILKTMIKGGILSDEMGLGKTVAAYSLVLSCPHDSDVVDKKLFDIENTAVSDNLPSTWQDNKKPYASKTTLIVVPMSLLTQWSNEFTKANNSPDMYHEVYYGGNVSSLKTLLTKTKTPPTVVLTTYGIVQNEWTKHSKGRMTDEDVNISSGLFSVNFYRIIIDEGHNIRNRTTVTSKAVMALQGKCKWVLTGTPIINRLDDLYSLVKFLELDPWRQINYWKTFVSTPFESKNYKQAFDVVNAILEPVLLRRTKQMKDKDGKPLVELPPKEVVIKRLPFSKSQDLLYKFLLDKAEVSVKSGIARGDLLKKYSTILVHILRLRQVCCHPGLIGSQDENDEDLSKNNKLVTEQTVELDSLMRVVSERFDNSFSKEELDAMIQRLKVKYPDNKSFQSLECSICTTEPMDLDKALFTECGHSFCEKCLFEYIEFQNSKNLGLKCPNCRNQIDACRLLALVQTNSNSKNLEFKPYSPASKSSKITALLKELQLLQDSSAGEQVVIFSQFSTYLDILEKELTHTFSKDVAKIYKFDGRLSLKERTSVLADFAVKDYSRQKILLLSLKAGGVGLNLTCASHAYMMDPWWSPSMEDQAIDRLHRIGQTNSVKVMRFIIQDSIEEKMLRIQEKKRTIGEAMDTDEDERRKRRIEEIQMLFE

[3] = biological target: L154A PCNA, purified (yeast) (UniProt P15873); experiment: native gel or EMSA; increasing concentrations of purified wild-type and mutant PCNA on a 12% non-denaturing polyacrylamide gel; both purified
[4] = biological target: T3, Pol31, Gal4 DNA-binding domain fusion (pGBT9, pID1023) (yeast), P46957; experiment: two-hybrid; Gal4 binding and activation domain fusions co-transformed into PJ69-4A; growth on SC-leu/trp/his (HIS3 reporter); 3-AT added to test the strength of the interactions; 30 °C, 3-5 days; settings: remark: other sources report otherwise
T3 chain: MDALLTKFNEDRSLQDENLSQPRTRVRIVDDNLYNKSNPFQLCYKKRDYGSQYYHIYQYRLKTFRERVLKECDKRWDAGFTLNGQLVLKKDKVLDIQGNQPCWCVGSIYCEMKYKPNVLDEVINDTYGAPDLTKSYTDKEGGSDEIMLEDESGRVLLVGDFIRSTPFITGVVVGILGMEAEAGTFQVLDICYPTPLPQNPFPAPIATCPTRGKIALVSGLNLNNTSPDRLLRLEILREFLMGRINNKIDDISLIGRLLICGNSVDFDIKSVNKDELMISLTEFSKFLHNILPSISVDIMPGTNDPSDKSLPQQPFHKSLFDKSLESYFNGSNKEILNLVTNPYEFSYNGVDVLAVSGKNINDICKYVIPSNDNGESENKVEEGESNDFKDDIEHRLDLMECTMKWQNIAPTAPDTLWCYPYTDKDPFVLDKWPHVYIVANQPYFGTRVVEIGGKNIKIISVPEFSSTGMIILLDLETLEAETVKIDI

[5] = biological target: T4, Pol3, catalytic subunit of Polδ, two-hybrid fusion (yeast), P15436; experiment: as above; settings: remark: other sources report otherwise
T4 chain: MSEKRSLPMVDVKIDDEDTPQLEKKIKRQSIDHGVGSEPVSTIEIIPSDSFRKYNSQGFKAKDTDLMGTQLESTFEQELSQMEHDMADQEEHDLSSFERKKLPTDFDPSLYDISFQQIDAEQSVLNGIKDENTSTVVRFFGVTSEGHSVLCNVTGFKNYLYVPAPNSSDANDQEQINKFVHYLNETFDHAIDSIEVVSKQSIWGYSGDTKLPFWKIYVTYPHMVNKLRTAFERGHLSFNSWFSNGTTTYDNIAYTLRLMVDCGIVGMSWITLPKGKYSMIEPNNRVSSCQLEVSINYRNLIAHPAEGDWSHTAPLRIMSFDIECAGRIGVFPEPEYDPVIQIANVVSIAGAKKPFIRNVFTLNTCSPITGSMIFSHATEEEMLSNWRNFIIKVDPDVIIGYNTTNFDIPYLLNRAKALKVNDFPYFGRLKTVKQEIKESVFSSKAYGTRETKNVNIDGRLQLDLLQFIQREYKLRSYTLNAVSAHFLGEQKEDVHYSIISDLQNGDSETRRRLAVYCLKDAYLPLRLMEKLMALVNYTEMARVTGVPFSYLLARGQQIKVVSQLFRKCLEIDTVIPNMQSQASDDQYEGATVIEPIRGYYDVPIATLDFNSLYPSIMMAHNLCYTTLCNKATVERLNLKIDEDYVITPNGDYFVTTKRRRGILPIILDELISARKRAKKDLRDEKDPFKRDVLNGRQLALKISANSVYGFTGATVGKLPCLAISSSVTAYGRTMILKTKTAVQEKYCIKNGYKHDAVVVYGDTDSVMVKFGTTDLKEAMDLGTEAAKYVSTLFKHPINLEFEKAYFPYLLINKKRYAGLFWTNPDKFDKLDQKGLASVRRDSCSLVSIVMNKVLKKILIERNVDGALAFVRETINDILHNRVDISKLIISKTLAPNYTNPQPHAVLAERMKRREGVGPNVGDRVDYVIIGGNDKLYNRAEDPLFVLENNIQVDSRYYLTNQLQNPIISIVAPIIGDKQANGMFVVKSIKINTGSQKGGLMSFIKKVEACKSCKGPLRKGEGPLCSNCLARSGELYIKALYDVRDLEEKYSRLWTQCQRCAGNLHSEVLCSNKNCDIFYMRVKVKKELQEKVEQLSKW

[6] = biological target: L154A PCNA, Gal4 DNA-binding domain fusion (pGBT9, pID1005) (yeast) (UniProt P15873); experiment: as above
[7] = biological target: wild-type PCNA, Gal4 DNA-binding domain fusion (pGBT9, pID998) (yeast) (UniProt P15873); experiment: as above

- binding [1]: binds
- binding [2]: binds
Molecule: wild-type PCNA, Gal4 activation domain fusion (pGAD424 + 1, pID999) (from UniProt P15873 1-258)

- binding [1]: binds
- binding [2]: binds
Molecule: L154A PCNA, Gal4 activation domain fusion (pGAD424 + 1, pID1004) (from UniProt P15873 1-258)

- binding [3]: no binding
Molecule: L154A PCNA, purified (from UniProt P15873 1-258)

- binding [4]: binds
- binding [5]: no binding
B1: wild-type PCNA, Gal4 activation domain fusion (pGAD424 + 1, pID999), P15873 1-258 (protein)
chain: MLEAKFEEASLFKRIIDGFKDCVQLVNFQCKEDGIIAQAVDDSRVLLVSLEIGVEAFQEYRCDHPVTLGMDLTSLSKILRCGNNTDTLTLIADNTPDSIILLFEDTKKDRIAEYSLKLMDIDADFLKIEELQYDSTLSLPSSEFSKIVRDLSQLSDSINIMITKETIKFVADGDIGSGSVIIKPFVDMEHPETSIKLEMDQPVDLTFGAKYLLDIIKGSSLSDRVGIRLSSEAPALFQFDLKSGFLQFFLAPKFNDEE

- binding [6]: binds
- binding [7]: binds
B2: Rad5, Gal4 activation domain fusion (pGAD424 + 1, pID145) (protein, UniProt P32849 1-1169)
chain: T2 sequence

- binding [6]: no binding
- binding [7]: binds
B3: Rad18, Gal4 activation domain fusion (pGAD424 + 1, pID684) (protein, UniProt P10862 1-487)
chain: MDHQITTASDFTTTSIPSLYQLDTLLRCHICKDFLKVPVLTPCGHTFCSLCIRTHLNNQPNCPLCLFEFRESLLRSEFLVSEIIQSYTSLRSSLLDALRIPKPTPVPENEEVPGPENSSWIELISESESDSVNAADDDLQIVATSERKLAKRSMTDILPLSSKPSKRNFAMFRSERIKKKSKPNEQMAQCPICQQFYPLKALEKTHLDECLTLQSLGKKPKISTTFPTESNPHNKSSSRFKVRTPEVDKSSCGETSHVDKYLNSMMSAEHQRLPKINFTSMTQSQIKQKLSSLGLSTNGTRQNMIKRYNHYEMLWNSNFCDSLEPVDEAELKRQLLSWDVSHNKTPQNSSNKGGISKLMIMKSNGKSSSYRKLLENFKNDKFNRKGWMVMFRKDFARLIREAKMKIKTGSSDSSGSVGHSNDGDGVEKVQSDQGTEDQQMEKDQDTVINEDRVAGERNLPNEDSTDADLSRELMDLNEYSKDPPGNN

From paper PMC8956578, “The inner side of yeast PCNA contributes to genome stability by mediating interactions with Rad18 and the replicative DNA polymerase δ” (Scientific Reports, 2022)
